Laboratory results as given in the supplement of paper PMC10126150.
Values marked as one replicate rest on one cluster of the flow cell; about a third of the high ones do not repeat.

System: ATP
Assay: switch fluorescence ratio, 500 uM ATP over buffer (Cy3 cluster intensity, sum of 5 cycles each) (fold (ratio)); higher = stronger signal-on switching upon ATP binding; sequences stand for … in TCGTCGGCAGCGTCAGATGTGTATAAGAGACAGTTTTTTTTTTTTTTTTTTTTTTTTT…TC
Settings: aptamer strand: ATP DNA aptamer (quencher-CACCTGGGGGAGTATTGCGGAGGAAGG + anchor), 100 nM annealed; ATP concentration: 500 uM; one replicate
Summary of the method: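 Values give the fluorescence ratio for each switch-domain sequence, averaged from per-cluster ratios of summed target-cycle to summed buffer-cycle Cy3 intensity. The Cy3-labelled switching-strand clusters sat on a modified Illumina MiSeq flow-cell, were annealed to 100 nM quencher-labelled ATP aptamer, and were imaged in selection buffer, then after 15 min with 500 uM ATP at 22 °C. Five cycles ran with NaOH stripping and re-annealing between them, and clusters outside 100-1000 RFU were excluded.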
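Note: ATP exposure 15 min at 22 °C before imaging.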

Sequence | switch fluorescence ratio
TCGTAGTGTC | 1.08
TTCATACTGA | 1.03
GATTTTCCC | 1.03
CACCAATTAA | 1.01
GTGCGAGAAT | 1.01
GTCCTGTGTG | 1.05
CATGGTTTGT | 0.998
ACGGATGCCT | 1.01
AAAGTAGAGA | 0.999
TATTTTATCG | 1.04
GTAGTTGGAC | 1.12
CGACGGGCTG | 1.08
TGGCGGAGAG | 0.97
CTACAACAGA | 1.1
CTCCAAGGAT | 1.17
GGGAGCATGG | 1.01
GATACTGCCT | 1.07
TATCTTTTGT | 0.991
CAAGGGATCT | 0.993
TCATGAAA | 1.04
TGCCTGGTAA | 0.965
AGTCAGGC | 0.976
TCGTTATACT | 1.76

Sequence | switch fluorescence ratio
GGTCACGGAC | 1.03
CACATTTGGC | 0.985
TGTTCATGAC | 1.04
GCTGGAGGTA | 0.974
CATTAGGTA | 1.01
CGGATGCTTT | 0.904
GTTGATTGCG | 1.02
CCATTGACTA | 1.06
ACTCAGGTCG | 1.11
AATGGCGATA | 1.02
CCCGATCCAT | 0.973
CTCGTCGGTA | 1.02
CATAGTTGAA | 0.986
CGTTCAGACT | 0.983
TCTACTAATT | 1.01
TCGCGTGGGA | 1.04
CAGTGTCATG | 0.991
CAGTTCCAGC | 1.01
TGCTTAAG | 1.03
ACCAATATGG | 1.02
GCTAGAAAAT | 0.917
AGACGTGATC | 1.04
CCATGTTCTG | 0.947

Sequence | switch fluorescence ratio
CGTTGAAGTA | 1
ATGGTGCGAC | 1.06
CGGGGTGGCA | 0.974
AGAAGAGCG | 1.02
AAGGAGGACT | 0.962
TACATAATCG | 1.03
TCAGGTATTA | 0.976
GAACAAAGAT | 1.02
TCACGCGCTG | 0.986
ATTGGTGTGG | 0.963
ACATTGTAAA | 0.987
AGGGTTCTAA | 1
AAGCATGGAT | 1
TACGTGTGCG | 0.978
ATATCGCAAT | 5.44
CAGCACTCTC | 1.56
ACAGAATCTG | 1.01
GTGGTGGTTA | 0.954
ACGCCTGGAA | 1.05
CGGGAAGGAA | 1.04
GTGTAAGGGA | 0.996
CGCTCCTCTG | 1.4
GCCTTTCGTG | 1.08

Sequence | switch fluorescence ratio
TTTGTTACA | 0.957
GGATTGCGTT | 0.968
CCCTCCTTAA | 1.42
ATTGGTCATT | 0.994
ACAATGTCAC | 1.04
AGATTCGGGG | 1.04
ATGATGCGTT | 0.98
GCCTCTAACT | 0.991
ATTGATGAAG | 1.03
GGTGTGATAA | 0.992
TAACTTAACT | 1.03
GTCCCATGGC | 0.985
TACGCTACGG | 1.53
GGAACGTTTT | 1.02
TATTACTGCT | 0.998
AGCAGCCTAT | 1
CTCTATGGTG | 1.1
GCCACGACGG | 1.03
TTTCCGGTCA | 0.994
CGCCACACGT | 1.05
GCTGGTGGCA | 1.04
GGACCCGACA | 1.1
CAGACGTGGT | 1.05

Sequence | switch fluorescence ratio
GATAACAGCG | 1.01
CGAAGGGCCA | 0.964
TGCCTTAGAT | 0.984
AGCACGTCTC | 1.05
AGATTTAGGA | 0.982
CCAATCCGGT | 0.969
GAGGCGTAG | 1.02
CTCCGGAAGG | 4.36
AATATGAAAA | 0.973
CAACTCGGAT | 1.01
ACTGAGGTCG | 1.06
ATTTTCGACT | 1.02
GTGAGTCGTG | 1
ACGGGTGTTC | 1.08
GGGTCGGGAC | 0.993
TGAATTGATC | 0.98
GCGAAACTTT | 0.992
TGTAGTACGG | 0.956
TATGGGTCAG | 0.99
TCGAGTATAG | 0.963
TCAAAAAAC | 0.991
GGTCCGTTTA | 1.02
ATTTCTTCGC | 1.31

Sequence | switch fluorescence ratio
AAATTAGCAT | 1.03
ACATATGGCC | 1.05
CGACTATGCG | 1.07
ATCTAGTTTT | 1.01
CGATACGAAT | 0.985
TTGATACAAA | 1.01
CCTGGGTGTA | 1.44
GGGACTGCAT | 1.03
TTAGATCGTA | 0.977
TCAAAGGCAT | 1
AAAGATCCTC | 0.996
TAGCAGATCT | 1
TCTCGGAGCG | 1.09
CCTAAAACAA | 1.06
GCTACAAACC | 1.11
TTTTCCCTT | 1
AATAGCTT | 0.976
ATACACAGCC | 1.13
ATTACAATGG | 0.992
TCGGGGTTGA | 1.03
GAGCCTGTGA | 1.03
AAACGCAGAT | 2.42
GGACCAACGC | 0.973

Sequence | switch fluorescence ratio
TTTTACAGGA | 0.998
AATGTGGGT | 1
TGCCTATTAA | 0.992
CATGAGTAGT | 0.973
TCGTTGTATT | 1.01
TATAGCTGCT | 1.06
CAATTTATAA | 0.974
TAGGTCTTTA | 0.965
CTGCGGCCTA | 1.03
TGTTATTGGA | 1.04
AAGAATTCGG | 0.983
ACTCCCTGTG | 1.21
GGGTAAACGT | 1.03
ATGCCGAGTT | 0.982
AGGGGCATG | 0.993
CTGGAAGGAG | 1.01
GATTCTTCCA | 1.02
CAAGTGGGAA | 1.01
CGCTGTCCTG | 1.01
